The list shows a part of the results.
B1: chr2:71279510:71279511:+_ENSMUSG00000027018_ENSMUST00000028408|mus_mus|motif|central (ssRNA)
RNA: GGGAGUUCUACAGUCCGACGAUCUCAUAAACUCUAGACAGUAUUUUAAAAUAUACAAUCUCUCAAAAGGAAAUAUUCCACGGAGGAGAACAUAGAUAACUUUAGGGUCAUCAGAGGUUCACAGCACGAUGCACAGAAAUCUGCCAACAGAGGAUUGAGCAUCA
B2: chr4:95690885:95690886:+_ENSMUSG00000028572_ENSMUST00000156910|mus_mus|mus_mus_mus_hu_False|1_28 (ssRNA)
RNA: GGGAGUUCUACAGUCCGACGAUCUUUAGAAAAUGUUAAAUACCAUGCUAAAAUAUUUUCAAAGGCUUAUUUUAUUUUACCAGAAGUCACAGGCAAGCAGACACUACAAACAUACAAGAAAAUGAAACUCAACAAUAAAAUGUACAACAGAGGAUUGAGCAUCA
B3: chr2:113286301:113286302:+_ENSG00000114999_ENST00000233336|hu_mus|FALSE|FALSE (ssRNA)
RNA: GGGAGUUCUACAGUCCGACGAUCAGCCGGCUGCUGCGGCACCUGCUCCGUGUCCGGGGGUGGGAAGACACUGGAUAUGGCUAUGUCCACGAUGCCCUGGCACAGUUCUGCAUAGAGUUUCUGGGCACACGCUGGGGCGCCGUUCAACAGAGGAUUGAGCAUCA
B4: chr18:43482012:43482013:-_ENSMUSG00000024501_ENSMUST00000121805|mus_mus|motif|central (ssRNA)
RNA: GGGAGUUCUACAGUCCGACGAUCGGAUUGAUCCCCAAAUUUGAAUUGUAACUCAAAACUUCAUUCCAUUCUUUUUCUUCGGAAGUCUCCUUUAAAAUGAAAGCACCAUGAGAGCUUUAAAGAAGCAAGAUUCCUCUUCUGAGGCAACAGAGGAUUGAGCAUCA
B5: chr14:54897011:54897012:-_ENSG00000100528_ENST00000216416|hu_hu|motif|central (ssRNA)
RNA: GGGAGUUCUACAGUCCGACGAUCCACCAAAACAUAGAUCAUGCCAUAUAGGUAGUAAAAAAAUGCUAGAAGAUAAAAAGCGGAUUUGCACCAUCCUUCCUUCUGACAAUAUGCUAGAAUAUCUGCAUUCAUGAUGGUUGUAGGCAACAGAGGAUUGAGCAUCA
B6: chr5:21408736:21408737:-_ENSMUSG00000042453_ENSMUST00000161356|mus_hu|mus_mus_mus_hu_False|48_98 (ssRNA)
RNA: GGGAGUUCUACAGUCCGACGAUCGUUGACAGAGUUGUAAAUGGUGGCUUCAUGGAACUGGAAAGGGGAGCAGCCAAUGCUGUUAGAAGAGGAAGGUAGGCACUGGGUCUGUACGAGCUGCCAGGAAUCCGAUCUUGCAUCCUUCAACAGAGGAUUGAGCAUCA
B7: chr17:60770872:60770873:+_ENSG00000011028_ENST00000303375|hu_hu|hu_hu_hu_mus_True|8_88 (ssRNA)
RNA: GGGAGUUCUACAGUCCGACGAUCUCUUUAAAAAAAAAAAAAAAAAGUUUAAAAACAAUAGCACAUUUCGAGAAUCAAGAACUACAAUAGAGGGUCCGCUUUGAGUUUUUGUUCACAUCGUCCUGCAACGCUGUCGCGGGACUGCAACAGAGGAUUGAGCAUCA
B8: chr11:134117569:134117570:+_ENSG00000151502_ENST00000281187|hu_mus|motif|central (ssRNA)
RNA: GGGAGUUCUACAGUCCGACGAUCAGAAACAUGUAAACACUGCAGCUUCUUAAUUACAAGUUGCACUGCUUGGUUUAGUACCGGUGCACUCCAGGUUUGGGAACCUUAAAGGAUGGGGAUGGGAACCUUCCCAUACUUUCACAGCAACAGAGGAUUGAGCAUCA
B9: 44713415_44713535_765_CDS_ENSG00000105953_ENST00000222673|human|control|control (ssRNA)
RNA: GGGAGUUCUACAGUCCGACGAUCGGACCGCACAAGCCUGGCCAGCAGGGUCCGUUUCUCCUCAUUUGUGAACUGCAUGAUCCCAGGGGUCUCAAACUUCUGCCGGAUCCACUGGCACUGCUCCAGGUCAUUGAUGAACAUGAACAACAGAGGAUUGAGCAUCA
B10: 50195189_50195309_2254_ncRNA_ENSMUSG00000007850_ENSMUST00000123371|mouse|control|control (ssRNA)
RNA: GGGAGUUCUACAGUCCGACGAUCUAAAGACAGCCCAAUAAACUAGGGAUAAUUUUAAAGCCUAAAGUUUAAUUUGAAUGAAAUACAUUAACUGGGAAAAUUUAGAAGUUAUAGCAGAUUAUCAAUUAACUGGGAAUAGGAAAUCAACAGAGGAUUGAGCAUCA
B11: chr2:127629987:127629988:-_ENSMUSG00000027379_ENSMUST00000028858|mus_hu|FALSE|FALSE (ssRNA)
RNA: GGGAGUUCUACAGUCCGACGAUCACCAGAUGUUUCACACUUUGCUGUGAAUAUAGUUCCUUUUGGAAAAAGUUUCAUAUCUAUACUCUGACCCAGGUCAAUCAGUGCCAAGCCAGCAGAUAAAUCAUCUUCAUCAUCCUGUUCCAACAGAGGAUUGAGCAUCA
B12: chr1:6218034:6218035:+_ENSMUSG00000025907_ENSMUST00000027040|mus_mus|FALSE|FALSE (ssRNA)
RNA: GGGAGUUCUACAGUCCGACGAUCGAUUACAAGUGUCUUAUAUGCGCUUGCUUGAUAUUGGCAACUGAGUGGCAUUACUGGUGAAACUCAGAGAACCGGCAGCGCCUCCUCCGCCCGCGGCAGCAACACAGCCGGCGGCCCUCCCAACAGAGGAUUGAGCAUCA
B13: chr11:109260588:109260589:+_ENSMUSG00000020611_ENSMUST00000020930|mus_hu|FALSE|FALSE (ssRNA)
RNA: GGGAGUUCUACAGUCCGACGAUCCUAACCAGAGGACCUUCUCUAUGCAAAUUACAUGCCAAUACACCUUAAAAGAAAAUAAGACAAAAGUGAAUGAGUUUUUUCAUUCCAUAUUGCUUUCUUUGGUUGCAGAGCAAUCCAGUGCAACAGAGGAUUGAGCAUCA
B14: 3982040_3982353_830_CDS_ENSG00000167658_ENST00000309311|human|control|control (ssRNA)
RNA: GGGAGUUCUACAGUCCGACGAUCGUCAAAGUACCUGUCACCCCACAGCUUCUUCAUCAUGUCCUCUACUUUCUUGGCCCGCUCGGCAGGCCCCAACUGGCCCUCCCCCUUGGCGGCGAACUUGGCCACAUACAUCUCGGCAAACAACAGAGGAUUGAGCAUCA

These binders were tested against T1, UNK ZnF1-3 (human, UniProt Q9C0B0 31-174) (assay: nsRBNS (natural sequence RNA bind-n-seq); RBNS binding buffer (assumed for nsRBNS): 25 mM Tris pH 7.5, 150 mM KCl, 3 mM MgCl2, 0.01% Triton X-100, 500 ug/ml BSA, 20 U/ml SUPERase-In, 4 C; UNK is unkempt and MSI1 is Musashi-1; names of the RNAs are library labels; protein concentration not given here; high values mean tight binding).
T1 sequence: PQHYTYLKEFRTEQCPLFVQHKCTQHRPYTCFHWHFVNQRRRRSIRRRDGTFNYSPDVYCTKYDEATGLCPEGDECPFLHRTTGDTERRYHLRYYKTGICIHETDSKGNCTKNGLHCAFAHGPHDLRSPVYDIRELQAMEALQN

| Binder | binding signal [enrichment R] |
| --- | --- |
| B1 | 0.866 |
| B2 | 1.78 |
| B3 | 0.587 |
| B4 | 0.98 |
| B5 | 1.58 |
| B6 | 1.68 |
| B7 | 2.72 |
| B8 | 0.656 |
| B9 | 0.813 |
| B10 | 2.5 |
| B11 | 0.839 |
| B12 | 1.02 |
| B13 | 0.576 |
| B14 | 1.08 |

Reference: PMC12136788
